We go through 59 molecules from PubChem BioAssay AID504374 (National Center for Advancing Translational Sciences (NCATS), 2011).

Screen size: about 1,500 compounds; about 100 (6.7%) were called active. Roughly 7% stayed inconclusive and do not appear here. Calls come from the whole dose curve; as a rule, active = well fitted inhibition curve with a large enough effect; inconclusive = small, poorly fitted or top-dose-only effect, or effect the other way; inactive = flat fitted curve, though single readings scatter. The list shows a part of the results.
% is set by controls: 0 for no effect and ±100 for the full control effect; potency is the fitted concentration of half-maximal effect.

Sequence of UniProt Q01196 (Q01196 whole entry, looked up): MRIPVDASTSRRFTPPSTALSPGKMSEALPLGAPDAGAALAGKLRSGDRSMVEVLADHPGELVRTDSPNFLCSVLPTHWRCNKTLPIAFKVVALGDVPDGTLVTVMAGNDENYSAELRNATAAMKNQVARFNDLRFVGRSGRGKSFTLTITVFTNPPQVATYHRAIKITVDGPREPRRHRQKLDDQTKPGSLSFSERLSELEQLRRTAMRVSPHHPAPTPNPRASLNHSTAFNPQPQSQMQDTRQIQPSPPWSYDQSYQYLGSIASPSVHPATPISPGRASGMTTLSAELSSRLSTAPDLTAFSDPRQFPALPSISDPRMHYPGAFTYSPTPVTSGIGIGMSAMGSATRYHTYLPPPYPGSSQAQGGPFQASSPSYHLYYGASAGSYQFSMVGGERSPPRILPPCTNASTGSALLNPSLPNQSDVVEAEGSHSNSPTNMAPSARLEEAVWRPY
Sequence of UniProt Q01196 (Q13951 whole entry, looked up): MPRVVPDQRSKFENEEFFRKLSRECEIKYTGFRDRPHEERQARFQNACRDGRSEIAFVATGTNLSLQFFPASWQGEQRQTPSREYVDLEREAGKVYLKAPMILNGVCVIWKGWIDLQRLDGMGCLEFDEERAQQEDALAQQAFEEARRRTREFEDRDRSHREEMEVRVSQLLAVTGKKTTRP

In the test the target is Runt-related transcription factor 1 (Homo sapiens) + Core-binding factor subunit beta (Homo sapiens) (UniProt Q01196+Q13951). Kind of test: qHTS Assay for Compounds Blocking the Interaction Between CBF-beta and RUNX1 for the Treatment of Acute Myeloid Leukemia: Hit Validation. Note: nearly all actives have a fitted effect of over 60% in size. The settings on record: AlphaScreen CBFb-His/RUNX1-biotin binding; series mostly up to 59.8 µM; activity, negative = inhibition: at the top concentration. In a few lines:
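Compounds were added to a premixed CBF-beta-His/RUNX1-biotin complex (30 nM each, 20 min) for 15 min. Nickel and streptavidin AlphaScreen beads followed for 90 min at room temperature, with emission at 440 nm […].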
Take `Cc1ccnn1CC(=O)N/N=C/c1c[nH]c2ccccc12`: the “activity, negative = inhibition” value was inactive: 3.16%.
On to `COc1ccccc1C(=O)N1CCC(N2CCN(c3ccccc3)CC2)CC1`, for which the “activity, negative = inhibition” value is inactive: -0.196%.
The same measure, in the same setting: the value for `C=CCNC(=S)NCC` was inactive: -8.82%; that for `CCCCOC(=O)CCc1c(C)n[nH]c1C` was inactive: -2.54%.
Still for that read-out and setting: the value for `O=C(COc1ccc(Cl)cc1)N(Cc1ccco1)C1CCS(=O)(=O)C1` (centres undefined) was inactive: -2.06%.
Regarding `O=C(O[C@@H]1OC2COC(=O)c3cc(O)c(O)c(O)c3-c3c(cc(O)c(O)c3O)C(=O)O[C@@H]([C@H]1O)[C@@H]2O)c1cc(O)c(O)c(O)c1`, the Potency is active: 224 nM.
As to `Cc1ccn(C)c(=N)c1`, the “activity, negative = inhibition” value is inactive: -1.05%.
The same measure, in the same setting: the value for `CC1CN(S(=O)(=O)c2cccc(C(F)(F)F)c2)CC(C)O1` (centres undefined) was inactive: -0.629%.
On to `Clc1ccc(/C=C/c2nc(Cl)c(-c3ccc(Cl)cc3)c(Cl)n2)cc1`, for which the “activity, negative = inhibition” value is inactive: -3.31%.
For the molecule `CCc1nc2ccccc2nc1N1CCN(S(=O)(=O)c2ccc(Cl)cc2)CC1`, the “activity, negative = inhibition” value is inactive: -3.31%.
With `NC(=O)CNC(=O)c1cccc(Cl)c1`, the “activity, negative = inhibition” value was inactive: -1.53%.
Consider `Cc1onc(-c2c(F)cccc2Cl)c1C(=O)Nc1ccccc1N1CCOCC1`, for which the “activity, negative = inhibition” value is inactive: -11.4%.
Still for that read-out and setting: the value for `CCOC(=O)C1CCCN(C(=O)Nc2c(-c3ccccc3)noc2C)C1` (centres undefined) was inactive: 0.758%; that for `O=P(O)(O)c1cc(-c2ccccc2)oc1-c1ccccc1` was inactive: 0.0456%; that for `Cc1ccc(S(=O)(=O)NNC(=O)c2cnn(-c3ccc(Cl)cc3)c2C(F)(F)F)cc1` was inactive: -5.18%.
Regarding `COC(=O)c1c(NS(=O)(=O)c2ccccc2)csc1C`, the “activity, negative = inhibition” value was inactive: 0.851%.
Regarding `S=C(Nc1ccccc1)N1CCCN1c1ccccc1`, the “activity, negative = inhibition” value was inactive: 4.77%.
On the same count and under the same terms, in the case of `CCOc1ccc(-c2noc(-c3cccnc3)n2)cc1OCC` it was inactive: -2.87%.
Same read-out and setting: the value for `Cc1ccc(/C(O)=C/C(=O)C(=O)NC23CC4CC(CC(C4)C2)C3)cc1` was inactive: -5.18%.
On to `CCOC(=O)/C(C#N)=C/c1ccc(OC(=O)c2ccccn2)cc1`, for which the Potency is active: 3860 nM.
In the case of `CC[C@H](C)[C@H](NC(=O)c1ccccc1)C(=O)Nc1ccc(S(=O)(=O)Nc2cc(C)nc(C)n2)cc1`, the “activity, negative = inhibition” value is inactive: 0.637%.
The same measure, in the same setting: the value for `CCCC1=NN(C(=O)Cc2ccc(OC)c(OC)c2)C(O)(C(F)(F)F)C1` (centres undefined) was inactive: -1.48%; that for `CCCCCCCc1c(O)nc(SCC(=O)O)[nH]c1=O` was inactive: -14.1%.
As to `COC(=O)Cc1cccc2c(=O)c3ccccc3oc12`, the “activity, negative = inhibition” value was inactive: 1.24%.
Same read-out and setting: the value for `Clc1ccc(Nc2cc(-c3ccccc3)nc3ncnn23)cc1` was inactive: -4.41%; that for `COCc1cc(=O)[nH]c2c1c(-c1ccccc1)nn2C` was inactive: 0.43%.
`COC(=O)[C@H](CCSC)NC(=O)Nc1cc(OC)cc(OC)c1`: the “activity, negative = inhibition” value was inactive: -12.2%.
The same measure, in the same setting: in the case of `O=C(Nc1ccc(Cl)cc1)Nc1ccc(C(=O)N2CCOCC2)cc1` it was inactive: -1.96%; in that of `Cc1nn(Cc2ccccc2)c(C)c1/C=N/NC(=O)c1ccncc1`, inactive: 1.18%; in that of `Cc1cccc(C(=O)N/C(=C\c2ccc(C)o2)C(=O)O)c1`, inactive: -12.8%.
Regarding `CN1C(=O)C(CC(=O)NCCc2ccccc2)N(NC(=O)c2ccc(Cl)cc2)C1=S` (centres undefined), the “activity, negative = inhibition” value is inactive: 0.238%.
As for `COc1ccccc1/C=C/C=N/n1c(-c2ccccn2)n[nH]c1=S`, the Potency is active: 11200 nM.
In the case of `CC(=O)Nc1cccc(S(N)(=O)=O)c1C`, the “activity, negative = inhibition” value is inactive: 1%.
On the same count and under the same terms, in the case of `O=S(=O)(Nc1nc(SCc2ccc(Cl)cc2)n[nH]1)c1ccccc1` it was inactive: -15.9%; in that of `O=c1[nH]nc(N2CCOCC2)c(=O)[nH]1`, inactive: 0.379%; in that of `Cc1nc(N2CCOCC2)nc(Oc2ccccc2F)c1[N+](=O)[O-]`, inactive: 12.2%.
In the case of `CCc1cccc(C)c1NC(=O)N(C)C1CCCCC1`, the “activity, negative = inhibition” value is inactive: -17.7%.
Same read-out and setting: in the case of `CCN(CC)C(=O)CSc1nnc2nnc3cc(OC)ccc3n12` it was inactive: -50.1%; in that of `Cc1cc(C(=O)N/N=C/c2c(C)nn(-c3ccccc3)c2C)n[nH]1`, inactive: -4.32%; in that of `N#Cc1ccc(S(=O)(=O)N2CCCN(c3ccc(C(F)(F)F)cn3)CC2)cc1`, inactive: 3.3%.
For the molecule `CCOc1cccc2cc(C(N)=O)c(=N)oc12`, the “activity, negative = inhibition” value is inactive: -6.73%.
On the same count and under the same terms, in the case of `O=S(=O)(c1cccc(F)c1)N1CCCN(c2ccc(C(F)(F)F)cn2)CC1` it was inactive: -0.754%; in that of `O=C(CSc1n[nH]c(=O)[nH]c1=O)NCC1CCCCC1`, inactive: -3.15%; in that of `OCCNc1nc2ccccc2nc1NCCO`, inactive: -2.36%.
Still for that read-out and setting: the value for `CCOC(=O)N1CCc2c(sc(N)c2C#N)C1` was inactive: -3.97%; that for `O=c1c2ccccc2c(-c2ccccc2)nn1-c1ccccc1` was inactive: 1.21%; that for `CCn1nc(NC(=O)Cc2ccc(OC)cc2)c2cc3cc(C)ccc3nc21` was inactive: -2.53%.
The same measure, in the same setting: the value for `COc1ccc(-n2c(=S)[nH]c3[nH]ncc3c2=O)cc1` was inactive: -6.5%.
Turning to `CCc1c(C)nc2c(-c3ccccc3)c(C)nn2c1Nc1ccc(NC(C)=O)cc1`, the “activity, negative = inhibition” value was inactive: 6.82%.
For `O=C(CN1CCCC1)Nc1c(C(=O)C2CC2)oc2ccccc12`, the “activity, negative = inhibition” value is inactive: -0.446%.
Consider `CC1=NN(c2nc3ccccc3s2)C(O)(C(F)(F)F)C1` (centres undefined), for which the “activity, negative = inhibition” value is inactive: -0.882%.
Same read-out and setting: in the case of `COc1cccc(NC(=O)C(=O)NCCc2ccc(F)cc2)c1` it was inactive: 5.31%; in that of `Nc1ncnc2c1ncn2C1OC(CO)C(O)C1N` (centres undefined), inactive: -0.781%; in that of `Cc1ccc(C(=O)COc2cc(C)nc3nncn23)cc1`, inactive: -3.97%.
As to `CC1=NN(c2ccccc2)C(=O)/C1=C/C=C/c1ccc(N(C)C)cc1`, the Potency was active: 1120 nM.
Take `Cc1ccnn1CC(=O)N/N=C/c1cn[nH]c1-c1ccc(F)cc1`: the “activity, negative = inhibition” value was inactive: -5.89%.
On the same count and under the same terms, the value for `COc1cccc(Nc2ncc(C#N)c(N)n2)c1` was inactive: -3.11%; that for `O=C(NNC(=O)C(Cl)Cl)c1cnn(-c2ccccc2)c1C(F)(F)F` was inactive: -4.25%.
As to `CC(C)N(Cc1ccccc1)C(=O)c1ccc2nsnc2c1`, the “activity, negative = inhibition” value is inactive: -10.3%.
